Laboratory results: the supplement of paper PMC4604168 (melanoma cell lines)
Some of the results follow. Single values are uncertain, as repeats are few or missing.

What was measured:
Experiment in all cases: cell count relative to DMSO control; melanoma cells; higher = more viable cells
Conditions in all cases: library dose: low library concentration; 72 h
COLO792 = tested on: COLO792
COLO800 = tested on: COLO800
COLO829 = tested on: COLO829
G361 = tested on: G361
IPC-298 = tested on: IPC-298
IST-MEL1 = tested on: IST-MEL1
LB2518-MEL = tested on: LB2518-MEL
LOXIMVI = tested on: LOXIMVI
MEL-HO = tested on: MEL-HO
MZ2-MEL = tested on: MZ2-MEL
MeWo = tested on: MeWo
RPMI7951 = tested on: RPMI7951
RVH-421 = tested on: RVH-421
SkMel28 = tested on: SkMel28
SkMel2 = tested on: SkMel2
SkMel30 = tested on: SkMel30
SkMel5 = tested on: SkMel5
UACC257 = tested on: UACC257
UACC62 = tested on: UACC62
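Note: cell number obtained by counting DAPI-stained nuclei in high-throughput microscope images with image analysis software, screen run in 1,536-well plates.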

Compound | cell count (COLO792) | cell count (COLO800) | cell count (COLO829) | cell count (G361) | cell count (IPC-298) | cell count (IST-MEL1) | cell count (LB2518-MEL) | cell count (LOXIMVI) | cell count (MEL-HO) | cell count (MZ2-MEL) | cell count (MeWo) | cell count (RPMI7951) | cell count (RVH-421) | cell count (SkMel28) | cell count (SkMel2) | cell count (SkMel30) | cell count (SkMel5) | cell count (UACC257) | cell count (UACC62)
CC1(C)CCC(c2ccc(Cl)cc2)=C(CN2CCN(c3ccc(C(=O)NS(=O)(=O)c4ccc(N[C@H](CCN5CCOCC5)CSc5ccccc5)c(S(=O)(=O)C(F)(F)F)c4)cc3)CC2)C1 + CC1(C)NC(=O)N(c2ccc([N+](=O)[O-])c(C(F)(F)F)c2)C1=O [nilutamide] (first compound 0.4 µM, partner dose 1 µM) | 78.5% | 52.9% | 106% | 92.6% | 94.1% | 73.5% | 106% | 69.4% | 76.5% | 92.2% | 91.1% | 66.4% | 76.8% | 83.1% | 89% | 70.8% | 64% | 77.8% | 92.7%
Cc1ccc(Nc2nccc(N(C)c3ccc4c(C)n(C)nc4c3)n2)cc1S(N)(=O)=O [Pazopanib] + NCC(=O)Nc1ccc(-n2nc(C(F)(F)F)cc2-c2ccc3c(ccc4ccccc43)c2)cc1 [OSU03012] (first compound 0.4 µM, partner dose 1 µM) | 96.7% | 120% | 72.5% | 120% | 77.3% | 88.5% | 106% | 71.1% | 100% | 83.1% | 59% | 125% | 107% | 96.5% | 67.6% | 47.5% | 88% | 107% | 72.5%
O=C(/C=C/c1cccnc1)NCCCCC1CCN(C(=O)c2ccccc2)CC1 + O=C(O)C(=O)Nc1sc2c(c1C(=O)O)CCNC2 [TCS401] (first compound 0.01 µM, partner dose 1.66667 µM) | 65.5% | 40.6% | 71.4% | 19.6% | 45.9% | 78.9% | 101% | 105% | 56.2% | 73.5% | 114% | 111% | 85.1% | 91.1% | 66.4% | 84.2% | 84.7% | 86.7% | 81.2%
CC1(C)CCC(c2ccc(Cl)cc2)=C(CN2CCN(c3ccc(C(=O)NS(=O)(=O)c4ccc(N[C@H](CCN5CCOCC5)CSc5ccccc5)c(S(=O)(=O)C(F)(F)F)c4)cc3)CC2)C1 + COc1ccc(COc2ccc(Cc3cnc(N)nc3N)cc2OC)cc1 [GW2580] (first compound 0.4 µM, partner dose 1 µM) | 74.8% | 50% | 132% | 93.4% | 98.8% | 76.4% | 78.9% | 32.3% | 73.8% | 97.9% | 68.6% | 62.3% | 55.6% | 109% | 87.2% | 67.2% | 69.6% | 134% | 102%
O=C(/C=C/c1cccnc1)NCCCCC1CCN(C(=O)c2ccccc2)CC1 + O=C(CCCCCCC(=O)Nc1ccccc1)NO [vorinostat] (first compound 0.01 µM, partner dose 0.08 µM) | 63.7% | 38.1% | 91.6% | 17% | 52.7% | 71.4% | 93% | 88.4% | 54.2% | 74.6% | 89% | 124% | 84.6% | 78% | 76% | 112% | 79% | 79.1% | 82.4%
Cc1ccc(Nc2nccc(N(C)c3ccc4c(C)n(C)nc4c3)n2)cc1S(N)(=O)=O [Pazopanib] + Cn1cncc1[C@@](N)(c1ccc(Cl)cc1)c1ccc2c(c1)c(-c1cccc(Cl)c1)cc(=O)n2C [tipifarnib] (first compound 0.4 µM, partner dose 0.01 µM) | 92.5% | 69.8% | 111% | 115% | 90.6% | 90% | 78.3% | 96.6% | 104% | 85.4% | 97.2% | 96.2% | 87.5% | 80.2% | 76.1% | 86.7% | 88% | 67.4% | 59.8%
O=C(/C=C/c1cccnc1)NCCCCC1CCN(C(=O)c2ccccc2)CC1 + C[C@@H]1CCN(C(=O)CC#N)C[C@@H]1N(C)c1ncnc2[nH]ccc12 [CP690550] (first compound 0.01 µM, partner dose 1 µM) | 53.1% | 24.4% | 71.2% | 8.48% | 41.4% | 63.8% | 89% | 52% | 45.6% | 43.1% | 94.4% | 95% | 56.6% | 84.7% | 53.4% | 90.9% | 76% | 141% | 97.9%
Cc1ccc(Nc2nccc(N(C)c3ccc4c(C)n(C)nc4c3)n2)cc1S(N)(=O)=O [Pazopanib] + OCCn1cc(-c2cnc3nnn(Cc4ccc5ncccc5c4)c3n2)cn1 [PF04217903] (first compound 0.4 µM, partner dose 1 µM) | 98.4% | 116% | 106% | 118% | 78.9% | 108% | 80.2% | 107% | 97.7% | 84.1% | 107% | 114% | 135% | 111% | 99.9% | 93.1% | 96.6% | 130% | 99.9%
